# The supplement of paper PMC8728848
# The list shows a part of the results.
# Columns and labels:
# Assay in all cases: glycan array binding signal (z-score within array); higher = stronger binding
# Conditions in all cases: glycan notation: IUPAC condensed, linker removed
# Fuc(a1-3)GlcNAc = molecular target: Fuc(a1-3)GlcNAc
# In short: (§1)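 Negative Z-scores can be read as non-binding. The Z-score is calculated within each array and then averaged across arrays of one protein sequence at different concentrations or buffers and across linkers. Arrays, 3228 in all, were curated from the Consortium for Functional Glycomics database and kept only where the protein sequence was available.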
# [1] = molecular target: Fuc(a1-3)[Gal(b1-4)]Glc6S
# In short: as §1
# [2] = molecular target: Fuc(a1-3)[Gal(b1-4)]GlcNAc
# In short: as §1
# [3] = molecular target: Fuc(a1-3)[Gal(b1-4)]GlcNAc(b1-2)Man
# In short: as §1
# [4] = molecular target: Fuc(a1-3)[Gal(b1-4)]GlcNAc(b1-2)Man(a1-3)[Fuc(a1-3)[Gal(b1-4)]GlcNAc(b1-2)Man(a1-6)]Man(b1-4)GlcNAc(b1-4)GlcNAc
# In short: as §1
# [5] = molecular target: Fuc(a1-3)[Gal(b1-4)]GlcNAc(b1-2)Man(a1-3)[Fuc(a1-3)[Gal(b1-4)]GlcNAc(b1-2)Man(a1-6)]Man(b1-4)GlcNAc(b1-4)[Fuc(a1-6)]GlcNAc
# In short: as §1
# [6] = molecular target: Fuc(a1-3)[Gal(b1-4)]GlcNAc(b1-3)Gal(b1-3)[Fuc(a1-4)]GlcNAc
# In short: as §1
# [7] = molecular target: Fuc(a1-3)[Gal(b1-4)]GlcNAc(b1-3)Gal(b1-4)[Fuc(a1-3)]GlcNAc
# In short: as §1
# [8] = molecular target: Fuc(a1-3)[Gal(b1-4)]GlcNAc(b1-3)Gal(b1-4)[Fuc(a1-3)]GlcNAc(b1-3)Gal(b1-4)[Fuc(a1-3)]GlcNAc
# In short: as §1
# [9] = molecular target: Fuc(a1-3)[Gal(b1-4)]GlcNAc(b1-3)GalNAc
# In short: as §1
# [10] = molecular target: Fuc(a1-3)[Gal(b1-4)]GlcNAc(b1-6)GalNAc
# In short: as §1
# [11] = molecular target: Fuc(a1-3)[Gal(b1-4)]GlcNAc(b1-6)[Gal(b1-3)GlcNAc(b1-3)]Gal(b1-4)Glc
# In short: as §1
# [12] = molecular target: Fuc(a1-3)[Gal(b1-4)]GlcNAc6S
# In short: as §1
# [13] = molecular target: Fuc(a1-3)[Gal3S(b1-4)]Glc
# In short: as §1
# [14] = molecular target: Fuc(a1-3)[Gal3S(b1-4)]GlcNAc
# In short: as §1
# [15] = molecular target: Fuc(a1-3)[Gal3S(b1-4)]GlcNAc6S
# In short: as §1
# [16] = molecular target: Fuc(a1-3)[GalNAc(b1-4)]GlcNAc
# In short: as §1
# [17] = molecular target: Fuc(a1-3)[GalNAc(b1-4)]GlcNAc6S
# In short: as §1
# Fuc(a1-4)GlcNAc = molecular target: Fuc(a1-4)GlcNAc
# In short: as §1
# Fuc(b1-3)GlcNAc = molecular target: Fuc(b1-3)GlcNAc
# In short: as §1
# Gal(a1-2)Gal = molecular target: Gal(a1-2)Gal
# In short: as §1
# Gal(a1-3)Gal = molecular target: Gal(a1-3)Gal
# In short: as §1
# Gal(a1-3)Gal(b1-3)GlcNAc = molecular target: Gal(a1-3)Gal(b1-3)GlcNAc
# In short: as §1
# [18] = molecular target: Gal(a1-3)Gal(b1-3)GlcNAc(b1-2)Man
# In short: as §1
# [19] = molecular target: Gal(a1-3)Gal(b1-3)GlcNAc(b1-2)Man(a1-3)[Gal(a1-3)Gal(b1-3)GlcNAc(b1-2)Man(a1-6)]Man(b1-4)GlcNAc(b1-4)GlcNAc
# In short: as §1
# [20] = molecular target: Gal(a1-3)Gal(b1-3)GlcNAc(b1-3)GalNAc
# In short: as §1
# [21] = molecular target: Gal(a1-3)Gal(b1-3)GlcNAc(b1-6)GalNAc
# In short: as §1
# [22] = molecular target: Gal(a1-3)Gal(b1-3)[Fuc(a1-4)]GlcNAc(b1-2)Man(a1-3)[Gal(a1-3)Gal(b1-3)[Fuc(a1-4)]GlcNAc(b1-2)Man(a1-6)]Man(b1-4)GlcNAc(b1-4)GlcNAc
# In short: as §1
# Gal(a1-3)Gal(b1-4)Glc = molecular target: Gal(a1-3)Gal(b1-4)Glc
# In short: as §1
# Gal(a1-3)Gal(b1-4)GlcNAc = molecular target: Gal(a1-3)Gal(b1-4)GlcNAc
# In short: as §1
# [23] = molecular target: Gal(a1-3)Gal(b1-4)GlcNAc(b1-2)Man
# In short: as §1
# [24] = molecular target: Gal(a1-3)Gal(b1-4)GlcNAc(b1-2)Man(a1-3)[Gal(a1-3)Gal(b1-4)GlcNAc(b1-2)Man(a1-6)]Man(b1-4)GlcNAc(b1-4)GlcNAc
# In short: as §1
# [25] = molecular target: Gal(a1-3)Gal(b1-4)GlcNAc(b1-3)GalNAc
# In short: as §1
# [26] = molecular target: Gal(a1-3)Gal(b1-4)GlcNAc(b1-6)GalNAc
# In short: as §1
# [27] = molecular target: Gal(a1-3)Gal(b1-4)[Fuc(a1-3)]GlcNAc
# In short: as §1
# [28] = molecular target: Gal(a1-3)Gal(b1-4)[Fuc(a1-3)]GlcNAc(b1-2)Man(a1-3)[Gal(a1-3)Gal(b1-4)[Fuc(a1-3)]GlcNAc(b1-2)Man(a1-6)]Man(b1-4)GlcNAc(b1-4)GlcNAc
# In short: as §1
# Gal(a1-3)GalNAc = molecular target: Gal(a1-3)GalNAc
# In short: as §1
binder,measurement,setting,value
Na-CTL-1 (Necator americanus) (protein) MQRSFLLLLVVLAGAWAVNTTIPLKLMGGFTPMKYQCVGRVSDIWADVLFLIESSDMITKSGFRQVIAFITATTKKMTIGQDEKQTRVGFITYGEEAKLIYDLDHWRSTEKLSDLVQKIPYVKSSGTNIAAAIALANKVFNSPTHRPNVPKVMVIVANGLKKGSQNPIPVATAFKDFGGIIITIEYTQYDNIQVPILKKIASEGYNIRSNDEDFSVRTLTNMLLQANCFCPDHYVPFRVNNPEFGCFVTAKIPSMWRDAAEMCRAVEEGKLVKVENEEKAAFIMKLVGPKKEAWIGLRYYGNKFQWTDGTKLNADDFNLWPEDIKELNGPHCVSMYQDQKDKKYYWRAGKCLEDMRYVCEVQPCSASNYCSEPVFMYRQKHRALLPAPPPPPN,glycan array binding signal (z-score),Fuc(a1-3)GlcNAc,-0.392
same,glycan array binding signal (z-score),[1],0.865
same,glycan array binding signal (z-score),[2],0.32
same,glycan array binding signal (z-score),[3],0.208
same,glycan array binding signal (z-score),[4],-0.397
same,glycan array binding signal (z-score),[5],-0.311
same,glycan array binding signal (z-score),[6],-0.356
same,glycan array binding signal (z-score),[7],-0.001
same,glycan array binding signal (z-score),[8],-0.504
same,glycan array binding signal (z-score),[9],-0.617
same,glycan array binding signal (z-score),[10],0.681
same,glycan array binding signal (z-score),[11],-0.205
same,glycan array binding signal (z-score),[12],-0.11
same,glycan array binding signal (z-score),[13],-0.425
same,glycan array binding signal (z-score),[14],-0.075
same,glycan array binding signal (z-score),[15],-0.594
same,glycan array binding signal (z-score),[16],0.806
same,glycan array binding signal (z-score),[17],0.068
same,glycan array binding signal (z-score),Fuc(a1-4)GlcNAc,13.6
same,glycan array binding signal (z-score),Fuc(b1-3)GlcNAc,0.303
same,glycan array binding signal (z-score),Gal(a1-2)Gal,-0.633
same,glycan array binding signal (z-score),Gal(a1-3)Gal,-0.519
same,glycan array binding signal (z-score),Gal(a1-3)Gal(b1-3)GlcNAc,0.073
same,glycan array binding signal (z-score),[18],0.192
same,glycan array binding signal (z-score),[19],-0.139
same,glycan array binding signal (z-score),[20],-0.222
same,glycan array binding signal (z-score),[21],-0.267
same,glycan array binding signal (z-score),[22],-0.137
same,glycan array binding signal (z-score),Gal(a1-3)Gal(b1-4)Glc,1.29
same,glycan array binding signal (z-score),Gal(a1-3)Gal(b1-4)GlcNAc,-0.05
same,glycan array binding signal (z-score),[23],-0.51
same,glycan array binding signal (z-score),[24],0.692
same,glycan array binding signal (z-score),[25],-0.272
same,glycan array binding signal (z-score),[26],0.049
same,glycan array binding signal (z-score),[27],-0.132
same,glycan array binding signal (z-score),[28],-0.248
same,glycan array binding signal (z-score),Gal(a1-3)GalNAc,0.042
